Results from article PMC12136788.
Some of the results follow.

T1: UNK ZnF1-6 (called full-length) (human, UniProt Q9C0B0 30-357)
T1 sequence: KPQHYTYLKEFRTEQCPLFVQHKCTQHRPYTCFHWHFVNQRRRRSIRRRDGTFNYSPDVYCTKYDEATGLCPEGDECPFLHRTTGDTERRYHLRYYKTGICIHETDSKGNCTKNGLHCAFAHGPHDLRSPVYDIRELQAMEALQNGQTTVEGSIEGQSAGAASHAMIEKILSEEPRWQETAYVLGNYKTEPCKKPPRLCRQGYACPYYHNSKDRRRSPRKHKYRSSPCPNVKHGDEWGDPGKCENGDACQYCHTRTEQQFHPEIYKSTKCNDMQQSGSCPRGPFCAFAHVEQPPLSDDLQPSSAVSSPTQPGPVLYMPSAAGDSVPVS

B1: ENSG00000198589:be:win_2401|CDS|ENSG00000198589|bound_else_gene|NA|bound_elsewhere_windowed (ssRNA)
RNA: GGGAGUUCUACAGUCCGACGAUCCAUAAACAGCAUCCAGAUCCUGAUUCUUCAGUGAAGAUACAAAACCCUCAGAUACUAAAAGUAAUUGCGACCCUACUUCGAAAUUCUCCCCAGUGCCCAGAGAGCAUGGAGGUUCGCAGACAACAGAGGAUUGAGCAUCA
B2: chr1:32195301:32195402:+|3pUTR|ENSG00000084652|msi1|total|mutant (ssRNA)
RNA: GGGAGUUCUACAGUCCGACGAUCUGACCUGGCUGGCAUCUGGCACUUGCAAUUUUGGAUUUUGUGGGUCAGUUUUACGUACACCGGGCAUUUUGCAAGGCCUUGCAAAUGCAUUUAUACCUGUAAGUGUACAGUGGGCUUGCACAACAGAGGAUUGAGCAUCA
B3: chr8:81702113:81702224:-|3pUTR|ENSG00000104231|unk|FALSE|unique (ssRNA)
RNA: GGGAGUUCUACAGUCCGACGAUCGUAUAGCCUUGCUGUCUGUCUACAUCAUGAUGUAUAAAUUGAUAUAUCUACAUGAAUUAUAGAAACUUAGAAGUGAUCUUUAUUCAGUCUUAUAAUUUUUACAUGAAGAAUCUUAGGCCUCAACAGAGGAUUGAGCAUCA
B4: chr5:136977529:136977630:-|3pUTR|ENSG00000152377|msi1|FALSE|unique (ssRNA)
RNA: GGGAGUUCUACAGUCCGACGAUCACAAGCCAUCUCUUUCAUUUCUGCUUGAAGCCCCUUGGCUGCAGCAAUCCUGUCUGCCAUAGGUUUCUUCCUUCCUUACCUACUCAAGGGCUUUUUCUAAGGCAUGCACACAUAUCUCCUCAACAGAGGAUUGAGCAUCA
B5: chr18:47840682:47840783:-|3pUTR|ENSG00000175387|unk|total|mutant (ssRNA)
RNA: GGGAGUUCUACAGUCCGACGAUCAUACCGUUUUUCCAAAGGUAUUUUACAAUAUUUCAACAGCAGACCUUCUGCUCUUCGAGCCGUUUGAUUUGGUUCCGUAACCAGAUUGCAUUAUGAAAUGGGCCUUUUGUAAAUGUAAUUCAACAGAGGAUUGAGCAUCA
B6: chr9:123379744:123379845:-|3pUTR|ENSG00000119522|msi1|FALSE|unique (ssRNA)
RNA: GGGAGUUCUACAGUCCGACGAUCGUGUUUCAGCAUAGAUUCCAGUUUCGCACCCUGGGCAGACCCCCAGGCCCCAUCCGGGAUAGGGCAGAGGAGGUGCUGGCGGCCCCAGGGAAGGAGGGUGUGUACCCCAAGGCCCCCUGGCAACAGAGGAUUGAGCAUCA
B7: chr8:41263332:41263433:-|3pUTR|ENSG00000104332|msi1|FALSE|unique (ssRNA)
RNA: GGGAGUUCUACAGUCCGACGAUCCAGCAUGCCCGCCUAGUUACCUACCGGAGAGUUAUCCUGAUAAAUUAACCUCUCACAGUUAGUGAUCCUGUCCUUUUAACACCUUUUUUGUGGGGUUCUCUCUGACCUUUCAUCGUAAAGCAACAGAGGAUUGAGCAUCA
B8: chr20:3582170:3582271:+|CDS|ENSG00000088812|msi1|total|mutant (ssRNA)
RNA: GGGAGUUCUACAGUCCGACGAUCGGCCUUCGGAAGAUCAAUGUGUCCUACUGGUGCUGGGAAGAUAUGUCCCCAUUUACAAACCGUUUACUACAGUGGAUGCCGUCUGAGCCCAGUGAUGCUGGAUUCUGUGGAAUUUUAUCACAACAGAGGAUUGAGCAUCA
B9: chr3:94057921:94060947:-|three_prime_utr|ENSG00000178700|control|control|control (ssRNA)
RNA: GGGAGUUCUACAGUCCGACGAUCAGGUGUUUUCUGGUUUAAGUUGUUCCCCCUCCCUCUGAGAAAAGUAUGCAUUUUUACAUUAGAAAAGGGACUUUUGUUGACUUCAGAUCUAUGGAUAAUUAUUUCUAAGCAACGUGUUUUCAACAGAGGAUUGAGCAUCA
B10: ENSG00000198589:be:win_8801|3pUTR|ENSG00000198589|bound_else_gene|NA|bound_elsewhere_windowed (ssRNA)
RNA: GGGAGUUCUACAGUCCGACGAUCAAGUCUAUUUUCACCAAUUAUGGAAACAUACAGUGGAGCAAGUAAACCACUUAUUCCAGCUAUAAUAUUAUGAAGAACAUUUCCCAUGCAUCUACAAGCUUGAGAAAUAGGAUUUUCACACAACAGAGGAUUGAGCAUCA
B11: chr12:65247554:65247656:+|3pUTR|ENSG00000174106|unk|total|mutant (ssRNA)
RNA: GGGAGUUCUACAGUCCGACGAUCCAGUAUUUAAUUUGUUUCAGUAAACUUACUUUAUUACUGUUUAUGAUUUCAGAUAAAAACCGUUGCUGAGUAAAUUUUACUUGUAAUCUACAAUUGGCUUUUUAAAAAUAACCUGUUGAUCAACAGAGGAUUGAGCAUCA
B12: chr2:224378697:224380208:-|three_prime_utr|ENSG00000124019|control|control|control (ssRNA)
RNA: GGGAGUUCUACAGUCCGACGAUCUCCUUCAUCUGCAAGUUCAGGGUGAAGAAAAAGAAGAAGAUGAAGAAGAAUUCUUUAUAUAGCAUAAAAUAAAUGUGGUUUUCUAAAACACAAGAUCAGAUAAAAUGUUCUAGAAAUGGACAACAGAGGAUUGAGCAUCA
B13: chr1:51287257:51288280:-|three_prime_utr|ENSG00000085831|control|control|control (ssRNA)
RNA: GGGAGUUCUACAGUCCGACGAUCCAUGGAGUCAAGGACACACUUUCGAAUCCAGGCAGCCACACUCCAAGCCAAGUCUUCCCUAGAGAACAGCAGCAGAUCCAUGGUCUCAUCAGUGUCCUUGUAGCUUUGUGCAGCAGUUCCCAACAGAGGAUUGAGCAUCA
B14: chr7:2664602:2664704:+|3pUTR|ENSG00000136295|msi1_unk|total|mutant (ssRNA)
RNA: GGGAGUUCUACAGUCCGACGAUCUCCUCCAGCCUCUGCCGGGCCAUGGCUGUAUGUACUGUCGCUGUGUUUUUUUGUUUUUUCCGAACUGGGUUUGGGGGCUGAUUUUUAUUUCUUUGGGGGCUUUUUUUCUUGGCAAAUACUCAACAGAGGAUUGAGCAUCA
B15: chr5:95898239:95898810:-|CDS|ENSG00000118985|control|control|control (ssRNA)
RNA: GGGAGUUCUACAGUCCGACGAUCGUUGACAGUUUUAGUCAAAACGAUAGUAUCUAUGAGGACCAGCAAGACAAAUAUACCUCUAGGACUUCUCUGGAAACCUUACCCCCUGGUUCCGUUCUACUAAAGUGUCCAAAGCCUAUGCAACAGAGGAUUGAGCAUCA
B16: chr1:31179744:31181702:-|three_prime_utr|ENSG00000084628|control|control|control (ssRNA)
RNA: GGGAGUUCUACAGUCCGACGAUCUCAGACCCAUCCCAUCCCACCACACUCACUCACCAGCUCUGGGGAAAGCUACUGUGAACUAGGAGCAGGAUUCCUGGGUUCUAAUCGCAGGUCCAUCACUGACUGUGACGUCUAGCAAAGCAACAGAGGAUUGAGCAUCA
B17: chr10:117284474:117284575:-|CDS|ENSG00000165650|msi1|total|mutant (ssRNA)
RNA: GGGAGUUCUACAGUCCGACGAUCAUUGCAUUGUGGUGCAGGGAUCCUUUCAAGUUGGGAGGUCUCAUCUGUUUGGGGCAUGUCCGUUUAAAACUUGAAGAUGUGGCUUCCGGAUGCCCCGCUACAUCAAACACGGAAUACCUUCAACAGAGGAUUGAGCAUCA
B18: chr19:35125195:35125507:-|CDS|ENSG00000153902|control|control|control (ssRNA)
RNA: GGGAGUUCUACAGUCCGACGAUCCUCGCGCGGUGCCCACGUCUUCCAGCCACUGCUCAUCGCCAGGGACCAGCUGGCCAUCCUAGGCAGCGACUUCGCCUUCAGCCAGGUCCUCCGCCUUGAGCCUGACAAGGGGCUCCUGGACAACAGAGGAUUGAGCAUCA
B19: chr1:22530103:22530204:+|3pUTR|ENSG00000184677|msi1|FALSE|unique (ssRNA)
RNA: GGGAGUUCUACAGUCCGACGAUCCAUGUAUAGAGUGGGCAGGCGGUUCCAGGGAGACAAGCAGCAUGUUAUUAAAUUGGGCCUAGGCAGUUGGACGAUAAUGGAGAAAAAGCAGGGAUGCUAUAAUGAGUCCUCCCCAAGGGUCAACAGAGGAUUGAGCAUCA
B20: chr15:55376998:55377117:-|CDS|ENSG00000260916|unk|total|mutant (ssRNA)
RNA: GGGAGUUCUACAGUCCGACGAUCUAUCUAUAUUGGAACUGCCAGUGAUGAUUCUGAUAUUGUUACCCUUGAGCCACCUAAGUCCGAAGAAAUUGGAAAUCAAGAAGUUGUCAUUGUUGAAGAAGCACAGAGUUCAGAAGACUUCAACAGAGGAUUGAGCAUCA
B21: chr8:96261867:96261970:+|5pUTR|ENSG00000156471|unk|total|mutant (ssRNA)
RNA: GGGAGUUCUACAGUCCGACGAUCUCCUUCCCUCUGCUCCCAGCCUUUGCUGGGCGCCAGACCCGGCUUUGCCGUCCGGCUAUCCGCCUACUGUGGCCCGUCACCCCCGGGGUCCCGGCCUUCUCGGGCUGGGGCCGCCGCCACCAACAGAGGAUUGAGCAUCA
B22: ENSG00000107863:be:win_101|CDS|ENSG00000107863|bound_else_gene|NA|bound_elsewhere_windowed (ssRNA)
RNA: GGGAGUUCUACAGUCCGACGAUCCUGUAUCACUGUCUGAAGAUGAAACAUUCUCCUGGCCAGGUCCCAAAACAGUUACGUUGAAAAGAACAUCUCAAGGCUUUGGUUUUACAUUAAGACAUUUUAUUGUUUAUCCCCCAGAGUCAACAGAGGAUUGAGCAUCA

Biological target: T1, UNK ZnF1-6 (called full-length)
Assay: nsRBNS (natural sequence RNA bind-n-seq); RBNS binding buffer (assumed for nsRBNS): 25 mM Tris pH 7.5, 150 mM KCl, 3 mM MgCl2, 0.01% Triton X-100, 500 ug/ml BSA, 20 U/ml SUPERase-In, 4 C; UNK is unkempt and MSI1 is Musashi-1; names of the RNAs are library labels; protein concentration not given here; high values mean tight binding

First: B1
Second: B2
The binding signal of the first is lower: 0.432 enrichment R for the first, 0.625 enrichment R for the second.

Compared with B3, B4 is lower in binding signal: 1.15 enrichment R for the first, 0.574 enrichment R for the second.

First: B5
Second: B6
The binding signal of the first is lower: 0.426 enrichment R for the first, 0.57 enrichment R for the second.

First: B7
Second: B8
The binding signal of the first is higher: 1.07 enrichment R for the first, 0.562 enrichment R for the second.

Compared with B9, B10 is lower in binding signal: 0.859 enrichment R for the first, 0.449 enrichment R for the second.

First: B11
Second: B12
The binding signal of the first is lower: 0.307 enrichment R for the first, 1.68 enrichment R for the second.

Going from B13 to B14, the binding signal rises from 0.824 enrichment R to 1.44 enrichment R.

First: B15
Second: B16
The binding signal of the first is lower: 0.589 enrichment R for the first, 0.761 enrichment R for the second.

First: B17
Second: B18
The binding signal of the first is lower: 0.408 enrichment R for the first, 0.747 enrichment R for the second.

Going from B19 to B20, the binding signal falls from 1.43 enrichment R to 0.258 enrichment R.

First: B21
Second: B22
The binding signal of the first is higher: 0.745 enrichment R for the first, 0.27 enrichment R for the second.
